In PubChem BioAssay (NCATS):
Inconclusive means that the source gave no clear call. Such entries were picked first, then a sample of the others. For part of these data: Potencies of inconclusive entries are doubtful fits and often do not repeat. The source made the active and inactive calls. Unless noted, calls come from the whole dose curve; as a rule, active = well fitted curve in the direction sought with a large enough effect; inconclusive = small, poorly fitted or top-dose-only effect, or another doubt; inactive = no such curve, though single readings can be large; an effect the other way counts as inactive or inconclusive.

Tests used:
[1] = AP1 Signaling Pathway (AID 357; active = well fitted curve in either direction with a large enough effect, not every such curve was filed as active; inconclusive = small, poorly fitted or top-dose-only effect, or another doubt;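 note: ME-180 reporter cells stimulated with EGF at its EC50 level; top concentration of the series differs between compounds; % is set by controls: 0 for no effect and ±100 for the full control effect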); conditions: ME-180 (cervical carcinoma) AP-1-bla reporter, EGF-induced, beta-lactamase ratio, 5 h; at 38 µM (top of the series)
Procedure, shortened: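 First, ME-180 AP-1-bla cells were cultured overnight at 37 °C in low-serum Opti-MEM. Next, titrated compounds with EC50 EGF were incubated 5 hours. Finally, CCF4 was added for 2.5 hours and the 460/530 nm ratio recorded.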

[2] = NFAT Signaling Pathway (AID 444; active = well fitted curve in either direction with a large enough effect, not every such curve was filed as active; inconclusive = small, poorly fitted or top-dose-only effect, or another doubt;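 note: carbachol stimulus at about its EC50 of 1 µM final; % is set by controls: 0 for no effect and ±100 for the full control effect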); conditions: Jurkat NFAT-bla M1, carbachol, beta-lactamase ratio, 5 h; at 38 µM (top of the series)
Procedure, shortened: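 Jurkat cells carrying an NFAT-driven β-lactamase reporter and co-transfected muscarinic M1 receptor were treated with compound plus carbachol (1 uM final, an EC50 level) for 5 h at 37 °C. CCF4 loading followed for 1 h at RT; 460/530 nm ratio gave %activity.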

[3] = target: Mitogen-activated protein kinase 10 (Mus musculus) (UniProt Q61831); assay: JNK3 AlphaScreen Assay (AID 530; active = well fitted curve in either direction with a large enough effect, not every such curve was filed as active; inconclusive = small, poorly fitted or top-dose-only effect, or another doubt;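 note: kinase came from lysate of stimulated human HepG2 cells; signal reports phosphorylation of biotinylated GST-cJun 1-79 at Ser73 with 10 µM ATP; potency is the fitted concentration of half-maximal effect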); conditions: JNK3 lysate, c-Jun phosphorylation; activity change, negative = inhibition: at 57.1 µM (top of the series)
Procedure, shortened: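 Inhibitors reduce antibody binding to phosphorylated biotin-cJun, lowering AlphaScreen luminescence. Lysates from HepG2 cells pre-activated by IL-1beta plus TNF-alpha supplied JNK3; compounds were titrated.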

[4] = target: Cytochrome P450 2D6 (Homo sapiens) (UniProt P10635); assay: qHTS Assay for Inhibitors and Substrates of Cytochrome P450 2D6 (AID 891);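 note: luciferin methyl ether substrate demethylated by CYP2D6 with NADPH regeneration; top concentration of the series differs between compounds; % is set by controls: 0 for no effect and ±100 for the full control effect; nearly all actives have a fitted effect of over 60% in size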
Procedure, shortened: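 Human CYP2D6 (5 nM) with 30 uM Luciferin-ME EGE (at Km) in 100 mM KPO4, compound preincubated 10 min, then NADPH regeneration system for 60 min at room temperature. Luciferin read by luminescence; normalized to 1.43 uM quinidine.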

[5] = qHTS Assay for Identification of Small Molecule Antagonists for NFkB Signaling Pathway (AID 895; active = well fitted inhibition curve with a large enough effect in the signal ratio, with a control signal flat, not every such curve was filed as active; inconclusive = small, poorly fitted or top-dose-only effect, or effect the other way, or a change in a side signal; the % refers to the signal ratio; note: potency is the fitted concentration of half-maximal effect); conditions: NFkB beta-lactamase reporter cells, FRET ratio 460/530, stimulated with 10 pM TNF alpha; activity change, negative = inhibition: at 38.3 µM (top of the series)
Procedure, shortened: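 NFkB-bla ME-180 cervical carcinoma cells with beta-lactamase reporter under NFkB response element; compounds added, then TNF alpha at 10 pM final (EC50), 5 h at 37 C. LiveBLAzer substrate 2 h, room temperature; emission 460/530 nm at 405 nm excitation.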

[6] = qHTS Assay for Identification of Small Molecule Agonists for Thrombopoietin (TPO) Signaling Pathway (AID 917); note: potency is the fitted concentration of half-maximal effect
Procedure, shortened: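 IL-3-dependent murine pro-B Ba/F3 cells, stably transfected with human TPO receptor and GpIIb-promoter luciferase, are incubated 24 hrs at 37 C with test compound and 26 pM TPO; luciferase signal is read after 10 min at room temperature.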

[7] = target: Muscarinic acetylcholine receptor M1 (Rattus norvegicus) (UniProt P08482); assay: qHTS Assay for Antagonists of Acetylcholine Muscarinic M1 Receptor: Kinetic Measurement of Intracellular Calcium Response (AID 943); note: nearly all actives have a fitted effect of over 75% in size
Procedure, shortened: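 CHO cells expressing rat M1 receptor, Fluo-4 loaded, preincubated 10 min with compound, then stimulated with EC80 carbachol (100 nM final). Kinetic calcium fluorescence over 4 min; response taken as peak over basal signal.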

[8] = target: Muscarinic acetylcholine receptor M1 (Rattus norvegicus) (UniProt P08482); assay: qHTS Assay for Antagonists of Acetylcholine Muscarinic M1 Receptor: Measurement of IP-One Response (AID 944); note: potency is the fitted concentration of half-maximal effect; nearly all actives have a fitted effect of over 75% in size
[9] = qHTS for differential inhibitors of proliferation of Plasmodium falciparum line GB4 (AID 1816); conditions: Potency: Plasmodium falciparum GB4 proliferation inhibition;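 note: potency is the fitted concentration of half-maximal effect; parasite growth measured after 72 h incubation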
[10] = qHTS for differential inhibitors of proliferation of Plasmodium falciparum line Dd2 (AID 1882); conditions: Potency: Plasmodium falciparum Dd2 proliferation inhibition; note: potency is the fitted concentration of half-maximal effect; nearly all actives have a fitted effect of over 65% in size
Procedure, shortened: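 Dd2-infected erythrocytes (0.3% parasitemia, 2.5% hematocrit final) incubated with compound 72 h at 37 C, 5% CO2; lysed with saponin/Triton buffer containing SYBR Green I, incubated overnight in the dark, then read by fluorescence (485/535 nm). Normalized to 0.29 uM artemisinin and DMSO.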

[11] = target: Ferritin light chain (Equus caballus) (UniProt P02791); assay: qHTS Validation Assay for Identification of Novel General Anesthetics (AID 2323); note: potency is the fitted concentration of half-maximal effect
Procedure, shortened: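 Normalized fluorescence response, scaled between free 1-AMA and 1-AMA/apoferritin complex, fitted to a four-parameter Hill equation for concentration-effect values. Binding mix: 10 uM horse-spleen apoferritin, 50% saturated 1-AMA in PBS; read 380/535 nm after 10 min.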

[12] = target: RecQ-like DNA helicase BLM (Homo sapiens) (UniProt P54132); assay: qHTS Validation Assay for Inhibitors of Bloom's syndrome helicase (BLM) (AID 2364); note: potency is the fitted concentration of half-maximal effect
Procedure, shortened: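 BLM 50 nM in 25 mM Tris-HCl pH 8.0, 5 mM NaCl, 2 mM MgCl2, 1 mM DTT, 0.01% Tween-20, 2.5 ug/ml poly(dI-dC); 15 min cpd preinc, RT. Start: 200 nM forked DNA + 2 mM ATP (final). TAMRA read, 2 reads 2 h apart.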

[13] = Cytometry Cell-Based qHTS for Inhibitors of the mTORC1 Signaling Pathway in MEF cells (AID 2668); note: potency is the fitted concentration of half-maximal effect
Procedure, shortened: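 In MEFs grown in DMEM + 10% FBS, a 24 hrs compound exposure preceded imaging of phospho-rpS6 Ser235/236 by laser-scanning cytometry.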

[14] = Validation screen for small molecules that induce DNA re-replication in MCF 10A normal breast cells (AID 463097); note: potency is the fitted concentration of half-maximal effect; nearly all actives have a fitted effect of over 60% in size
Procedure, shortened: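 Following 48 hr compound incubation (37 C, 5% CO2), MCF 10A cells receive Hoechst for 40 min at 37 C. Nuclei are then scanned (excitation 405 nm, emission 500-530 nm) for total fluorescence intensity.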

[15] = target: ATP-dependent 6-phosphofructokinase (Trypanosoma brucei brucei) (UniProt O15648); assay: qHTS Validation Assay to Find Inhibitors of T. brucei phosphofructokinase (AID 485368); conditions: activity change, negative = inhibition: at 57.5 µM (top of the series); note: potency is the fitted concentration of half-maximal effect
Procedure, shortened: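 Enzyme reaction in triethanolamine buffer pH 8.0 with 5 mM MgCl2, 0.01% Tween20 and 0.1% BSA; PFK 1.25 nM, F6P 0.5 mM, ATP 0.1 mM, 45 min RT. ADP quantified by ADP-Glo.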
Tags give direction and shape of the fitted curve or compound fluorescence and quenching.

UniProt P08482, sequence (P08482 whole entry, looked up): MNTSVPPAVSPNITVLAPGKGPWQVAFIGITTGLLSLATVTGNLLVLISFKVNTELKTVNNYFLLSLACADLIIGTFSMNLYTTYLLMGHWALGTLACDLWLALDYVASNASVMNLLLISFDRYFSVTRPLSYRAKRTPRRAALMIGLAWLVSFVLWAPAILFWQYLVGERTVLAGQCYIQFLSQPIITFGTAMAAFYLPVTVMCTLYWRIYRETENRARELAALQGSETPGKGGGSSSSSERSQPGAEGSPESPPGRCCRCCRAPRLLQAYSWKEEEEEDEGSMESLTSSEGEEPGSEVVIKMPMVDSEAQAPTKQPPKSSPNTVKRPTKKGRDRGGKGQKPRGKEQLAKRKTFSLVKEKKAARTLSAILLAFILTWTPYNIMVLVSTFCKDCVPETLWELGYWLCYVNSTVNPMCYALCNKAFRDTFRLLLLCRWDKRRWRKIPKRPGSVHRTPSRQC
UniProt P10635, sequence (P10635 whole entry, looked up): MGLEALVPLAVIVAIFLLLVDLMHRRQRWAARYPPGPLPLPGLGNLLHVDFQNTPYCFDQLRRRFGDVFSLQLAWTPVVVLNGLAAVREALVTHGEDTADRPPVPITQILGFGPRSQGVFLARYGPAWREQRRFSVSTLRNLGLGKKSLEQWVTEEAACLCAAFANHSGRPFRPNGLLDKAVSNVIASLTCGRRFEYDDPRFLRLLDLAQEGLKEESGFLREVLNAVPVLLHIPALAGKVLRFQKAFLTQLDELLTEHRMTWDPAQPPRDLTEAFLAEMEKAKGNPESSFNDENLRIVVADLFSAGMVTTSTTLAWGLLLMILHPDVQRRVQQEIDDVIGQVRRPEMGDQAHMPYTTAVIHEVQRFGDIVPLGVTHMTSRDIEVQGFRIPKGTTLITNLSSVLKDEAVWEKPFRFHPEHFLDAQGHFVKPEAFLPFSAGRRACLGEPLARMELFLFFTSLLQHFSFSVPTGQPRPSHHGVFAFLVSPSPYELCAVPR
UniProt P54132, sequence (P54132 whole entry, looked up): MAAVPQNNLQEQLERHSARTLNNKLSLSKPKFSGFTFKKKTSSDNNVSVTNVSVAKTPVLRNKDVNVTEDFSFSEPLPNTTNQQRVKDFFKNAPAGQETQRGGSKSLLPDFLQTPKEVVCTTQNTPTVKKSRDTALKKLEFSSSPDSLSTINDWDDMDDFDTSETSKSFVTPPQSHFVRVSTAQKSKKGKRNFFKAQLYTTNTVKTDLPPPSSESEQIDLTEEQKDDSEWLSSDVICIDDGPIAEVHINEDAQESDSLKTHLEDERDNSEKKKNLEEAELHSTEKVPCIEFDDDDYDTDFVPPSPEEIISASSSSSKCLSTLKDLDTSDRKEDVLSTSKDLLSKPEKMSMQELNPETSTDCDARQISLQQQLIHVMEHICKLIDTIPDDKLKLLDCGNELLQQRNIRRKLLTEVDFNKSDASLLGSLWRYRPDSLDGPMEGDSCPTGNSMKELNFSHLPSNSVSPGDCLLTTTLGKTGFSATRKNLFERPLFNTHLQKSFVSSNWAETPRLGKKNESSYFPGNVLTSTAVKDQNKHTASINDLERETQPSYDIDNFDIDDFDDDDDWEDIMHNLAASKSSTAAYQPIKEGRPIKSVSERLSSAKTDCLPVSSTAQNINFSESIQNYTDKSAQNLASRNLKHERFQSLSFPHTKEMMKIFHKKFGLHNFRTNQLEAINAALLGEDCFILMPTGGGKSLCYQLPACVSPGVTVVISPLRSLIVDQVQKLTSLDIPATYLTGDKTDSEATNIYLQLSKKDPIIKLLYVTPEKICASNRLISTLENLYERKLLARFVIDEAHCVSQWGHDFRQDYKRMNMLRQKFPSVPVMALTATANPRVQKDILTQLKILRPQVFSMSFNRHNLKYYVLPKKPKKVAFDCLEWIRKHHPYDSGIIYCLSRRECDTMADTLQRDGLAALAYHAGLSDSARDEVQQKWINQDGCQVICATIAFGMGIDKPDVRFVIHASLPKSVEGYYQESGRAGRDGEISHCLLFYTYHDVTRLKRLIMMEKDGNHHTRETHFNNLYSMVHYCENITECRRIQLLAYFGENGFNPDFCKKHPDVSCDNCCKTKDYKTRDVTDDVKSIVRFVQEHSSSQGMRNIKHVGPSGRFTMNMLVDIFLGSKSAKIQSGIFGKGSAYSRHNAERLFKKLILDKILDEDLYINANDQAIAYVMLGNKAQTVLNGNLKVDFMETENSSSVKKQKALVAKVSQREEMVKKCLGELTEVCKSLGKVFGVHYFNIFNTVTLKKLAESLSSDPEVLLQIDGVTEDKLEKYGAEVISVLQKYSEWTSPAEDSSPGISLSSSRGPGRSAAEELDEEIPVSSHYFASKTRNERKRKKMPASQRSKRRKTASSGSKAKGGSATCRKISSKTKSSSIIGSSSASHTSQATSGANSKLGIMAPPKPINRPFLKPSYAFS
UniProt P02791, sequence (P02791 whole entry, looked up): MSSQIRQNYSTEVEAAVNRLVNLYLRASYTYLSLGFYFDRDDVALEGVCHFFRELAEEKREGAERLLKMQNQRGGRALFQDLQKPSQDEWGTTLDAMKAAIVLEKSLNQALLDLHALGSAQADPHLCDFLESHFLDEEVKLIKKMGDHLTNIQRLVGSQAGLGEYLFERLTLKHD
UniProt O15648, sequence (O15648 whole entry, looked up): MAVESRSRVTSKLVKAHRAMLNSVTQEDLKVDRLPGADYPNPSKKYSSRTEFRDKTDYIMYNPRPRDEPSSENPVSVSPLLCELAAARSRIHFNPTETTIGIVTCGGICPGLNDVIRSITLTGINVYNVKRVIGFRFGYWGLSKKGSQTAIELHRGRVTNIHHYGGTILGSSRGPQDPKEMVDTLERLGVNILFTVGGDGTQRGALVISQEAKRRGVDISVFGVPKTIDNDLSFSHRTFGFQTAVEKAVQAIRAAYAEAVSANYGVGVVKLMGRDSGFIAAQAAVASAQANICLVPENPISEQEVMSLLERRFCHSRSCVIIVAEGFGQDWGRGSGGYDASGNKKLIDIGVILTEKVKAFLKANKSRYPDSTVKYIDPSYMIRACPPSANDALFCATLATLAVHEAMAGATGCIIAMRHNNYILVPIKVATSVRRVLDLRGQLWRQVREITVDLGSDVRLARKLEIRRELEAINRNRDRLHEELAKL

N#C/C(=C\c1ccc(O)c(O)c1)C(=O)NCc1ccccc1
active: Potency [9] 11.2 µM | Potency [14] 8.91 µM | Potency [15] 13.5 µM
inactive: activity change, negative = inhibition [1] -8.08% | activity change, negative = inhibition [2] -14.7% | Potency [4] | Potency [7]
inconclusive: Potency [3] 25.1 µM [inhibitor, partial curve] | Potency [5] 6.31 µM [inhibitor, partial curve, poor fit] | Potency [6] 1 µM [inhibitor, full curve, poor fit] | Potency [8] 15.8 µM [inhibitor, partial curve, poor fit] | Potency [10] 12.6 µM [inhibitor, single point] | Potency [11] 35.5 µM [inhibitor, partial curve, poor fit] | Potency [12] 25.1 µM [inhibitor, partial curve] | Potency [13] 18.5 µM [falling, single point]
